Test results published in the supplement of paper PMC10126150.
Sequences with one replicate were seen in a single cluster, so their values are uncertain.

System: ATP
Assay: switch fluorescence ratio, 500 uM ATP over buffer (Cy3 cluster intensity, sum of 5 cycles each) (fold (ratio)); higher = stronger signal-on switching upon ATP binding; sequences stand for … in TCGTCGGCAGCGTCAGATGTGTATAAGAGACAGTTTTTTTTTTTTTTTTTTTTTTTTT…TC
Conditions: aptamer strand: ATP DNA aptamer (quencher-CACCTGGGGGAGTATTGCGGAGGAAGG + anchor), 100 nM annealed; ATP concentration: 500 uM; one replicate
Outline: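 For every switch-domain sequence, the fluorescence ratio is the mean of per-cluster values, each being summed target-cycle Cy3 intensity over summed buffer-cycle Cy3 intensity. Clusters outside 100-1000 RFU were excluded. On a modified Illumina MiSeq flow-cell, the Cy3-labelled switching-strand clusters were annealed to 100 nM quencher-labelled ATP aptamer, imaged in selection buffer and then after 15 min with 500 uM ATP at 22 °C. Five such cycles were run, with NaOH stripping and re-annealing between them.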
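Note: ATP exposure 15 min at 22 °C before imaging.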

Row | Sequence | switch fluorescence ratio
1 | GGAGAACGCC | 1.07
2 | GCTCGTATAA | 1.01
3 | GACATTGCGA | 0.99
4 | CATGGCTGGA | 1.09
5 | GGCCAGACTC | 1.08
6 | CCCGTGAGAG | 1.3
7 | AGTATTAGGT | 1.01
8 | GTACACCCCA | 1.16
9 | CGGGGGACTC | 1.01
10 | TCAGTGAAAA | 0.956
11 | TACCCGCTGA | 1.47
12 | ACGGTCCCGC | 1.06
13 | AATTGGCAAA | 1.03
14 | TGAAAAATCC | 1.31
15 | ATGGCCTTGT | 1.02
16 | TTCTTAGGTG | 1.07
17 | TCCGGTGTGC | 1.45
18 | CAAAGTGTGT | 0.974
19 | CTATGAGGGC | 1.02
20 | TTTGAGGCAC | 1.02
21 | AATCCCGAGC | 1.06
22 | AAGTGTTTCT | 1.02
23 | CTGCATCACG | 1.18
24 | TTGTAGAATC | 1
25 | GGTGCGGGTA | 0.997
26 | ATGCTTTTGC | 1.02

Row | Sequence | switch fluorescence ratio
27 | GAGGACCTCC | 0.941
28 | GGGAACCCTC | 1
29 | AGCGCCGTGG | 1.13
30 | CGTAGTCGGG | 1.01
31 | TATTCGCA | 1.27
32 | CTCCTCGTGG | 1.07
33 | TTTCTAGTTA | 0.989
34 | CGTGCAGTTA | 0.996
35 | CGCTCCCGTA | 1
36 | GCGAAGCGCC | 1.2
37 | AGGTGCCCC | 1.09
38 | TACATATATT | 1.07
39 | TGATGCTTAC | 2.88
40 | AGTTTAACGT | 1.01
41 | GGGTTTGCCG | 1.13
42 | CATATCCGT | 1.04
43 | GTTTAATCCT | 1.08
44 | TAATCGGGAG | 0.984
45 | GGCCGTCTGG | 1.01
46 | TGAGGTAAGC | 0.996
47 | GGAGAGCGGA | 0.958
48 | AACCCATTGC | 1.07
49 | AACCAGAATT | 1.04
50 | TATACCACTC | 1.06
51 | ATACTGAATG | 0.983
52 | CGCAGTATTT | 1.1

Row | Sequence | switch fluorescence ratio
53 | ACATTTACCT | 1.35
54 | TCCTTCTCGG | 1.08
55 | TGCCCCCCCC | 1.12
56 | TCCAAGAAAT | 1.07
57 | GATTTTTGAC | 0.983
58 | ATTTGGGAG | 0.976
59 | GACATGACGA | 1.39
60 | TATGGGCGTG | 1
61 | AGCTTTACGA | 1.39
62 | ACCTTCCGCG | 3.01
63 | CAGATCGGTG | 0.962
64 | GCACTTTGCG | 0.989
65 | AAACTTTGGG | 1
66 | CGGTTAAGTC | 0.952
67 | ACGAGGTTGC | 1.03
68 | AGGTTAAATC | 0.992
69 | ATGAGTGAGT | 0.987
70 | CCGGAACAAC | 3.22
71 | ATTGCCCCGT | 1.04
72 | TGGGAAACAT | 1.08
73 | TCAGGGTTAA | 1.03
74 | CTTGGCTATA | 1.19
75 | CAAGTCGGG | 0.953
76 | TTATACTTCC | 1.99
77 | AGAAAATCGC | 1.05
78 | AGGGATATGG | 1.29

Row | Sequence | switch fluorescence ratio
79 | GGGGTGCGTA | 1.03
80 | GATCTTCATT | 0.961
81 | GCGATTTGG | 1.05
82 | GCTGCCTTTT | 1.01
83 | TAGCTTGAAT | 0.985
84 | TCGAGAACAA | 1.01
85 | TGACGTTGAC | 0.973
86 | GCATAGATAG | 1.01
87 | CGAGACACG | 1.14
88 | AACCGTTGCC | 1.07
89 | CGAAGGCCGG | 0.899
90 | AATTAGTCGT | 0.998
91 | CATTTTATCC | 1.03
92 | GATTACGCAC | 1.58
93 | ACCCGGTAAG | 1.01
94 | GCTTTACTAG | 1.01
95 | ACTGTCCG | 1.03
96 | GCATGGCATC | 1.01
97 | TAACATCAAA | 1.01
98 | ACACCACATA | 1.27
99 | TGAATCAA | 1.01
100 | GCTTTTGACA | 1.02
101 | ATAATGGCTA | 1.02
102 | GAATGCGGCC | 1.06
103 | GTGCCATCGT | 1.05
104 | AATGGTTAAC | 0.979

Row | Sequence | switch fluorescence ratio
105 | ATTACAAGAT | 0.967
106 | TCTATGTAAA | 1.01
107 | CGCGGAGAAG | 1.02
108 | AGATTTAAAC | 0.993
109 | TGTACTTTTG | 1.04
110 | ATATAAAATT | 1.01
111 | CTTATACCCT | 1.07
112 | CGATGTGCT | 0.984
113 | GGTCATGGCC | 1.03
114 | TCTCGGCTAC | 2.7
115 | AGCTAGTAT | 0.998
116 | AGAAGTAGCG | 1.01
117 | ACAAGCAGAA | 1.08
118 | TAGTTTAACT | 0.968
119 | ATTTACGTCC | 1.07
120 | TTTCTCTCAC | 1.09
121 | CTGTTATTT | 1.01
122 | CGATGGGTGG | 1.01
123 | CGTATGGGCT | 0.972
124 | CAGCAAATAG | 1.19
125 | AAGGTTTGCT | 0.97
126 | CATATTCACC | 1.04
127 | TGATCGAGGG | 1.01
128 | TCGTTGAAAT | 1.03
129 | TTTCCCCAGA | 1.14
130 | TATAATTTGT | 1

Row | Sequence | switch fluorescence ratio
131 | AACTCTTTC | 1.14
132 | ATTTGAGACA | 1.07
133 | CATAAACCTA | 1.1
134 | AGATTTCGCA | 0.976
135 | GGCCGCGCGA | 1.05
136 | GCAAAGTCTT | 1.02
137 | ACATCATGGT | 0.995
138 | ACTCGGACAG | 1.03
139 | GCTTGTCTTT | 1.03
140 | AGTATTGGGA | 0.997
141 | AGCGCCCCGT | 0.998
142 | GAAACGTGGT | 1.02
143 | ACGAAGTGGG | 0.964
144 | CGAGGGTCCA | 0.955
145 | CTCCGTATGG | 3.53
146 | CATTCTATA | 1
147 | TTAAAAGACC | 0.983
148 | ATATAACC | 1.01
149 | CTTGCGTCAT | 1.07
150 | TGTACATATA | 0.985
151 | TGTGGAGAAC | 1.06
152 | CCCCCCCCAG | 4.75
153 | CAGTCTCGCC | 1.02
154 | CCATAGTTG | 1.03
155 | TTCCTCATAT | 1.12
156 | GGGTTGCCTG | 1.02

Row | Sequence | switch fluorescence ratio
157 | GAGATCTCAC | 0.982
158 | CTCGGTGCGG | 0.984
159 | TCTCCTTGGG | 0.993
160 | TCATGGCTGG | 0.991
161 | AGGAAATGTC | 1
162 | TAGTTTAA | 0.966
163 | TAAGCACAGA | 1.15
164 | GGAGCCTCTC | 1.01
165 | CTATCATGCA | 1.05
166 | CGTCAGATGG | 1.04
167 | AGTTGCGGAA | 0.999
168 | CCTCAACGTG | 1.15
169 | TGCTAACGTC | 1.01
170 | TAGTGGAAGT | 0.96
171 | TCTACCGAAA | 1.12
172 | CAGTCACTGT | 1
173 | TTTCTGCATA | 1.98
174 | GACGTGCTCC | 1.65
175 | GCACTTAAGG | 1.05
176 | TCACACTTAA | 0.981
177 | GTGAAAAACC | 1.03
178 | AGCTTTGGAT | 1.02
179 | TCATTAAGCC | 0.992
180 | CTGGCAGGT | 1.03
181 | GTCGTGAGAC | 0.989
182 | TGGTGGAACC | 0.977

Row | Sequence | switch fluorescence ratio
183 | ATTCTTATCC | 1.08
184 | TTCCCGCAAG | 1.42
185 | CAGTGTTTTG | 0.983
186 | TTTTCGAGTG | 0.957
187 | CGTGCATGTG | 0.993
188 | GGTCGCGAGG | 1.01
189 | TCCAATTCCG | 1
190 | ACTCACCGGT | 1.42
191 | GCTCAAACCC | 0.997
192 | CACGTGTTG | 1
193 | TTATAACATA | 1.04
194 | GGTTAAGTTG | 0.987
195 | GTCCCGGAAT | 1.45
196 | GAGGCAGTAA | 3.2
197 | GAGTGAATAG | 0.998
198 | TGGTTAATTG | 1.06
199 | AAGCAAAAAC | 1.36
200 | GAGGCGACGA | 1
201 | GACCTGCCAT | 1.12
